Molecules are shown by their SMILES. Among all 340,000 compounds or so, about 6,900 (2%) were called active. Cut-off read from the data, not from the text of the source: active = inhibition above about 30%; inactive = below that, where a call was filed. Only a part is listed here, and it is no random draw. The source gives no active or inactive call for entries shown without one.

In the experiment the target is D(2) dopamine receptor (Homo sapiens) (UniProt P14416). The experiment can be described thus: HTS Assay for Allosteric Antagonists of the Human D2 Dopamine Receptor: Primary Screen for Antagonists. Note: 0% is about no effect. Conditions: HEK293 TREx D2 cells, calcium flux, dopamine EC80; at 10 µM; stronger effect = higher value. In a few lines: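 Calcium mobilization kinetics were recorded at 1 s intervals in tetracycline-induced HEK293 T-REx D2 cells, first for 180 s after compound addition and then 180 s after EC80 dopamine.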
Sequence of UniProt P14416 (P14416 whole entry, looked up): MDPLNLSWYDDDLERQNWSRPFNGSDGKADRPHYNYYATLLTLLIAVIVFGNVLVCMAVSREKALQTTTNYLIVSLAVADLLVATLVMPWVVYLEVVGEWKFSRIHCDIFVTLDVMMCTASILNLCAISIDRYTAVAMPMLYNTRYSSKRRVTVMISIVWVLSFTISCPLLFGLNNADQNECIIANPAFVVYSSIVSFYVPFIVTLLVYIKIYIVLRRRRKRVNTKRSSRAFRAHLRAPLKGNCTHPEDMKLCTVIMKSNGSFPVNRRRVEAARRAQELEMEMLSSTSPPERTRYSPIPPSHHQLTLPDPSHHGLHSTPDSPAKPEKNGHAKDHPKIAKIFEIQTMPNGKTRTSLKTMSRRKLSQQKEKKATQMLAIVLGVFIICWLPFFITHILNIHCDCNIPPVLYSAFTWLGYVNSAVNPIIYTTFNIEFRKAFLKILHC
On to `COC(=O)C1=C(CS(=O)(=O)c2cc(Cl)ccc2OC)NC(=O)NC1c1ccccc1` (configuration not stated), for which the inhibition (commonly the change of the read-out against control, counted positive when it falls) is -0.601%.
`CCCCOc1ccc(C(=O)N2CCN(CCc3ccncc3)CC2)cc1`: the inhibition is 0.692%.
To `COCCCNC(=O)c1oc2c(c1C)-c1nn(Cc3cccc(Cl)c3)cc1CC2` belongs 18.3%; to `CCN1CCN(CCCNC(=O)c2cc3c(=O)n(C)c4ccccc4c3s2)CC1`, -6.71%; to `O=C(NCCc1ccccc1)c1cnc2sc(N3CCCC3)nn2c1=O`, -4.16%.
Next, `CCCc1nn2c(=O)cc(COC(=O)c3cccc(NC(=O)COc4ccccc4C)c3)nc2s1`: -2.7%; `Cc1cccc(OCCn2c(-c3ccc(Cl)cc3)nc3ccccc3c2=O)c1`: 5.71%.
With `Cc1ccccc1-c1nc(CS(=O)(=O)CC(=O)NCC(C)c2ccccc2)c(C)o1` (configuration not stated), the inhibition was found to be 16.2%.
In the case of `CCc1ccccc1NC(=O)Cn1c(=O)n(Cc2ccc3c(c2)OCO3)c(=O)c2ccc(C(=O)NC3CCCCC3)cc21`, the inhibition is -13.1%.
Turning to `O=C(COc1ccccc1Cl)NCC1(N2CCOCC2)CCCCC1`, the inhibition is -2.74%.
Turning to `COc1cc(OC)c(NC(=O)C2CCCN(c3ncnc4c3nc3n4CCCCC3)C2)cc1Cl` (configuration not stated), the inhibition is -10.6%.
On to `CCc1ccc(OCC(=O)Nc2cc3oc4ccccc4c3cc2OC)cc1`, for which the inhibition stood at 4.37%.
On to `Cc1ccn2c(Nc3ccc4c(c3)OCCO4)c(-c3cccs3)nc2c1`, for which the inhibition came out at 10.6%.
Next, `Cc1ccc2c(c1)Cc1c(nc(-c3ccc(Cl)cc3)nc1SCC(=O)N1CCCCC1)O2`: -15.1%; `Cc1ccc2onc(CNC(=O)Nc3cc(F)ccc3F)c2c1`: 23.6%; `Cc1ccc(NC(=O)C(CC(C)C)NS(=O)(=O)c2ccc3c(c2)oc(=O)n3C)c(C)c1` (configuration not stated): 19.9%.
`Cc1ccc(Cl)cc1NC(c1ccc(F)cc1)c1nnc(-c2ccccc2)o1` (configuration not stated): the inhibition was 0.837%.
Next, `O=C(CC1NCCc2ccccc21)Nc1ccc(Cl)cc1` (configuration not stated): active: 43.8%; `COc1ccc(Nc2cc(C)nc3c(C)c(C)ccc23)cc1`: 7.02%.
Next, `CCc1ccc(C2CC(=O)c3c([nH]c(C(=O)OCCOc4ccccc4)c3C)C2)cc1` (configuration not stated): 10.2%; `O=C(CSc1nnc(-c2ccc(Cl)cc2)o1)Nc1ccc(F)cc1`: 7.06%.
As to `CC(=O)N1CCc2c(sc3c2c(=O)n(CCc2ccccc2)c(=O)n3CC(=O)Nc2ccc(C)c(F)c2)C1`, the inhibition was found to be 0.106%.
`COc1cccc2c1Oc1ncccc1N(c1ccc(C(=O)NCc3ccccc3Cl)s1)C2`: the inhibition was determined as 5.43%.
To `COc1ccc(N2CCN(c3ncnc4onc(-c5ccc(F)cc5)c34)CC2)cc1` belongs -9.77%; to `Cc1ccc(CCNC(=O)c2ccc3c(c2)N(Cc2ccccc2)C(=O)c2ccccc2S3=O)cc1` (configuration not stated), 14.3%.
`COc1ccc(NC(=O)Cn2c(=O)n(CCCC(=O)NCCc3ccc(C)cc3)c(=O)c3ccccc32)cc1Cl`: the inhibition was -5.66%.
Regarding `Cc1cccc(NC(=O)c2ccc(F)c(S(=O)(=O)N3CCC4(CC3)OCCO4)c2)c1`, the inhibition was -18.3%.
To `COc1cc(OC)c(NC(=O)N2CCc3cc(OC)c(OC)cc3C2CC(=O)O)cc1Cl` (configuration not stated) belongs -11.4%; to `CCN(CC)CCNC(=O)c1cc2c(=O)n(C)c3ccccc3c2n1C`, active: 37%.
For `COc1ccc(C(=O)Nc2nnc(C)s2)cc1`, the inhibition is 1.08%.
To `CC(C)Cn1c(=O)c2ccccc2n2c(CCC(=O)N3CCN(c4ccccc4)CC3)nnc12` belongs -19.8%.
Consider `CCCCOC(=O)CSc1nnc(-c2ccc(C)cc2)o1`, for which the inhibition is -4.33%.
To `CC(C)c1ccc(C2c3c(-c4ccccc4O)n[nH]c3C(=O)N2Cc2ccncc2)cc1` (configuration not stated) belongs -18.3%; to `COc1cc(OC)cc(C(=O)Nc2ccc3nc(Nc4cccc(C(F)(F)F)c4)cc(C)c3c2)c1`, -5.94%.
To `CCN(CC)C(=O)C1CCN(c2nnc(C)c3c(C)n(-c4ccc(Cl)cc4)nc23)CC1` belongs -10.3%.
On to `C#CCn1c(C2CC(=O)N(c3ccc(OCC)cc3)C2)nc2ccccc21` (configuration not stated), for which the inhibition was -7.18%.
Next, `Cc1ccc(C)c(N2CCN(CCCNC(=O)Cn3cc4c(n3)CCCCC4)CC2)c1`: active: 65%.
As for `CCCOc1ccc(CNC(=O)C2CCCN(c3nc4c(C)cc(C)cc4s3)C2)cc1` (configuration not stated), the inhibition came to 1.61%.
For the compound `O=C(NCc1ccc(F)cc1)c1cnc(N2CCCCC2)c2ccccc12`, the inhibition worked out at 10.1%.
In the case of `COc1ccc(NC(=O)Cn2c(=O)n(-c3cccc(C(F)(F)F)c3)c(=O)c3sccc32)cc1`, the inhibition was -3.24%.
As for `Cc1[nH]c2ccccc2c1C1(O)C(=O)N(Cc2ccccc2Cl)c2ccccc21` (configuration not stated), the inhibition turned out to be 14%.
For `CCC1CN(C(=O)Nc2ccc(Br)cc2F)c2ccccc2S1` (configuration not stated), the inhibition worked out at 8.42%.
With `CCOc1ccc(OCC)c(NC(=O)CCc2nc3cccnc3n2-c2ccccc2)c1`, the inhibition is -2.02%.
Turning to `COc1ccccc1N1CCN(C(=O)CSc2n[nH]c(-c3ccccc3Cl)n2)CC1`, the inhibition was -6.6%.
To `O=C(NCC(c1ccc(Cl)cc1)N1CCCCC1)c1ccccc1F` (configuration not stated) belongs 5.72%; to `COC(=O)C(NC(=O)CCc1c(C)nc2c(c(C)nn2-c2ccccc2)c1C)C(C)C` (configuration not stated), -8.96%.
Next, `CCc1ccc(S(=O)(=O)Nc2ccc(-c3ccc(N4CCCC4)nn3)cc2)cc1`: -15.5%; `Cc1ccccc1NC(=O)[C@H](CSCc1ccccc1)N1Cc2ccccc2C1=O`: 13.9%; `Cc1nn(-c2ccc(N3CCCC3)nn2)c(C)c1CCC(=O)N1CCN(c2ccccc2)CC1`: 5.35%.
With `CCN(Cc1ccccc1)C(=O)c1nn(-c2ccc(OC)cc2)c(=O)c2c1c1ccccc1n2C`, the inhibition was -6.31%.
Turning to `COc1ccc(CN2CCC(n3nccc3NC(=O)c3ccc4c(c3)OCO4)CC2)cc1C`, the inhibition is active: 44.9%.
Next, `COC(=O)c1ccc(C(=O)OC)c(NC(=O)c2cnn3c(C(F)F)cc(-c4ccccc4)nc23)c1`: -14.6%; `CC(CCN1CCN(c2ccccn2)CC1)c1ccccc1` (configuration not stated): active: 62.7%.
To `COc1ccc(CC(C)N2CCN(Cc3ccccc3)CC2)c(OC)c1` (configuration not stated) belongs active: 83%; to `Cc1ccccc1NC(=O)Cn1c(=O)n(Cc2ccccc2)c(=O)c2sc3ccccc3c21`, 9.43%.
To `CCCSc1nnc2[nH]c(=O)cc(C)n12` belongs -3.36%; to `O=C(Nc1nnc(S(=O)(=O)Nc2ccccc2)s1)C1CCCCC1`, 12.7%; to `CCOC(=O)Cn1c(=O)n(CC2CCCO2)c2nc(-c3ccc(C(C)C)cc3)nc(C(N)=O)c21` (configuration not stated), -15.9%.
Regarding `COc1cc2c(-c3cc(Br)ccc3O)nc3c(c(C)nn3-c3ccccc3)c2cc1OC`, the inhibition is -0.245%.
Regarding `O=C(NCc1ccc2c(c1)OCO2)C1CCCN1C(=O)Nc1ccccc1` (configuration not stated), the inhibition was active: 66%.
Next, `Cc1ccccc1N(C)S(=O)(=O)c1nnc(NC(=O)C(C)C)s1`: -2.04%.
`COc1ccc(NCC(=O)N/N=C/c2c(C)nn(Cc3ccccc3)c2Cl)cc1`: the inhibition is active: 31.3%.
